According to the supplement of paper PMC4604168 (melanoma cell lines):
Some of the results follow. Repeats are few or missing, and single values can be far off.

Test system: SkMel5
Assay: cell count relative to DMSO control; melanoma cells; higher = more viable cells
Settings: library dose: standard library concentration; 72 h
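Note: cells treated in 1,536-well plates, then fixed and DAPI-stained, with nuclei counted from automated high-throughput microscope images.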

Structure (SMILES)	cell count
O=C(O)c1ccc2c(c1)nc(Nc1cccc(Cl)c1)c1ccncc12 + C=CCn1c(=O)c2cnc(Nc3ccc(N4CCN(C)CC4)cc3)nc2n1-c1cccc(C(C)(C)O)n1 [MK1775] (first compound 2 µM, partner dose 0.1 µM)	51.5%
O=C(O)c1ccc2c(c1)nc(Nc1cccc(Cl)c1)c1ccncc12 + COc1cc(N2CCC(N3CCN(C)CC3)CC2)ccc1Nc1ncc(Cl)c(Nc2ccccc2S(=O)(=O)C(C)C)n1 [NVP-TAE684] (first compound 2 µM, partner dose 0.4 µM)	77%
O=C(O)c1ccc2c(c1)nc(Nc1cccc(Cl)c1)c1ccncc12 + Cc1cc([N+](=O)[O-])ccc1NS(=O)(=O)c1cc(Cl)ccc1Cl [FH535] (first compound 2 µM, partner dose 5 µM)	66.7%
O=C(Nc1cc(C(F)(F)F)cc(C(F)(F)F)c1)c1cc(Cl)ccc1O + Cn1c(Nc2ccc(C(F)(F)F)cc2)nc2cc(Oc3ccnc(-c4ncc(C(F)(F)F)[nH]4)c3)ccc21 [CHIR265] (first compound 0.08 µM, partner dose 0.4 µM)	37.6%
O=C(O)[C@@H]1[O][Sb](=[O])([O][Sb]2(=[O])[O][C@H]([C@H](O)CO)[C@H](O)[C@H](C(=O)O)[O]2)[O][C@H]([C@H](O)CO)[C@@H]1O (stereo partly drawn) [stibogluconate] + COc1cc2ncnc(Nc3ccc(Oc4ccccc4)cc3)c2cc1OC [SrcI1] (first compound 10 µM, partner dose 10 µM)	60.4%
O=C(O)c1ccc2c(c1)nc(Nc1cccc(Cl)c1)c1ccncc12 + C#Cc1cccc(Nc2ncnc3cc(OCCOC)c(OCCOC)cc23)c1 [erlotinib] (first compound 2 µM, partner dose 4 µM)	45.2%
Cc1cc(N2CCOCC2)cc2[nH]c(-c3c(NC[C@@H](O)c4cccc(Cl)c4)cc[nH]c3=O)nc12 + Oc1cc(-c2nc(-c3ccccc3)[nH]c2-c2ccncc2)ccc1Cl [L779450] (first compound 1 µM, partner dose 1 µM)	68.4%
O=C(O)[C@@H]1[O][Sb](=[O])([O][Sb]2(=[O])[O][C@H]([C@H](O)CO)[C@H](O)[C@H](C(=O)O)[O]2)[O][C@H]([C@H](O)CO)[C@@H]1O (stereo partly drawn) [stibogluconate] + O=S(=O)(c1ccccc1)N(CC(F)(F)F)c1ccc(C(O)(C(F)(F)F)C(F)(F)F)cc1 [T0901317] (first compound 10 µM, partner dose 7 µM)	95%
O=C(O)[C@@H]1[O][Sb](=[O])([O][Sb]2(=[O])[O][C@H]([C@H](O)CO)[C@H](O)[C@H](C(=O)O)[O]2)[O][C@H]([C@H](O)CO)[C@@H]1O (stereo partly drawn) [stibogluconate] + Cn1cncc1[C@@](N)(c1ccc(Cl)cc1)c1ccc2c(c1)c(-c1cccc(Cl)c1)cc(=O)n2C [tipifarnib] (first compound 10 µM, partner dose 0.05 µM)	71%
O=C(Nc1cc(C(F)(F)F)cc(C(F)(F)F)c1)c1cc(Cl)ccc1O + COc1ccc(COc2ccc(Cc3cnc(N)nc3N)cc2OC)cc1 [GW2580] (first compound 0.08 µM, partner dose 5 µM)	68.6%
O=C(Nc1cc(C(F)(F)F)cc(C(F)(F)F)c1)c1cc(Cl)ccc1O + Cc1cc([N+](=O)[O-])ccc1NS(=O)(=O)c1cc(Cl)ccc1Cl [FH535] (first compound 0.08 µM, partner dose 5 µM)	74%
O=C(Nc1cc(C(F)(F)F)cc(C(F)(F)F)c1)c1cc(Cl)ccc1O + Cn1cc(/C=C2\C(=O)Nc3cccnc32)c2ccccc21 [GW441756] (first compound 0.08 µM, partner dose 2 µM)	84.5%
O=C(O)c1ccc2c(c1)nc(Nc1cccc(Cl)c1)c1ccncc12 + CCc1ccc(CCOc2ccc(CC3SC(=O)NC3=O)cc2)nc1 [pioglitazone] (first compound 2 µM, partner dose 10 µM)	86.8%
Cc1cc(N2CCOCC2)cc2[nH]c(-c3c(NC[C@@H](O)c4cccc(Cl)c4)cc[nH]c3=O)nc12 + CC(C)CCN1c2nc(Nc3cc(F)c(O)c(F)c3)ncc2N(C)C(=O)C1C [BID1870] (first compound 1 µM, partner dose 1 µM)	58.3%
O=C(Nc1ccccc1)c1cc([N+](=O)[O-])ccc1Cl + COc1ccc(-c2ccc3c(N4CCOCC4)nc(N4C[C@@H](C)O[C@@H](C)C4)nc3n2)cc1CO [KU0063794] (first compound 10 µM, partner dose 0.1 µM)	62%
O=C(O)c1ccc2c(c1)nc(Nc1cccc(Cl)c1)c1ccncc12 + O=c1cc(-c2cccc3c2Sc2ccccc2S3)oc(N2CCOCC2)c1 [KU55933] (first compound 2 µM, partner dose 5 µM)	68.3%
O=C(O)c1ccc2c(c1)nc(Nc1cccc(Cl)c1)c1ccncc12 + c1cc(-c2cnn3cc(-c4ccc(OCCN5CCCCC5)cc4)cnc23)ccn1 [Dorsomorphin] (first compound 2 µM, partner dose 2 µM)	64%
Cn1nnc2c(C(N)=O)ncn2c1=O [temozolomide] + Cc1cc([N+](=O)[O-])ccc1NS(=O)(=O)c1cc(Cl)ccc1Cl [FH535] (first compound 10 µM, partner dose 5 µM)	89.5%
O=C(Nc1cc(C(F)(F)F)cc(C(F)(F)F)c1)c1cc(Cl)ccc1O + COc1ccc2c(c1)CCC1C2CCC2(C)C(NCCCCCCN3C(=O)C=CC3=O)CCC12 [U73122] (first compound 0.08 µM, partner dose 2 µM)	109%
Cc1cc(N2CCOCC2)cc2[nH]c(-c3c(NC[C@@H](O)c4cccc(Cl)c4)cc[nH]c3=O)nc12 + Oc1nc(-c2ccc(C(F)(F)F)cc2)nc2c1CSCC2 [XAV939] (first compound 1 µM, partner dose 10 µM)	81%
O=C(Nc1cc(C(F)(F)F)cc(C(F)(F)F)c1)c1cc(Cl)ccc1O + CC(=O)O[C@@]12CO[C@@H]1C[C@H](O)[C@@]1(C)C(=O)[C@H](O)C3=C(C)[C@@H](OC(=O)[C@H](O)[C@@H](NC(=O)OC(C)(C)C)c4ccccc4)C[C@@](O)([C@@H](OC(=O)c4ccccc4)[C@H]21)C3(C)C [Docetaxel] (first compound 0.08 µM, partner dose 0.0005 µM)	34.7%
O=C(Nc1ccccc1)c1cc([N+](=O)[O-])ccc1Cl + O=S(=O)(c1ccccc1)N(CC(F)(F)F)c1ccc(C(O)(C(F)(F)F)C(F)(F)F)cc1 [T0901317] (first compound 10 µM, partner dose 7 µM)	62.4%
O=C(Nc1cc(C(F)(F)F)cc(C(F)(F)F)c1)c1cc(Cl)ccc1O + CCc1ccc(CCOc2ccc(CC3SC(=O)NC3=O)cc2)nc1 [pioglitazone] (first compound 0.08 µM, partner dose 10 µM)	72.7%
Cn1nnc2c(C(N)=O)ncn2c1=O [temozolomide] + Oc1nc(-c2ccc(C(F)(F)F)cc2)nc2c1CSCC2 [XAV939] (first compound 10 µM, partner dose 10 µM)	80.5%
O=C(Nc1cc(C(F)(F)F)cc(C(F)(F)F)c1)c1cc(Cl)ccc1O + C[C@]1(c2nc3c(C(N)=O)cccc3[nH]2)CCCN1 [Veliparib] (first compound 0.08 µM, partner dose 7 µM)	88.9%
O=C(O)c1ccc2c(c1)nc(Nc1cccc(Cl)c1)c1ccncc12 + O=C(Nc1ccccc1)c1cc([N+](=O)[O-])ccc1Cl [GW9662] (first compound 2 µM, partner dose 10 µM)	73.7%
O=C(O)c1ccc2c(c1)nc(Nc1cccc(Cl)c1)c1ccncc12 + Cn1cc(/C=C2\C(=O)Nc3cccnc32)c2ccccc21 [GW441756] (first compound 2 µM, partner dose 2 µM)	57.8%
O=C(O)[C@@H]1[O][Sb](=[O])([O][Sb]2(=[O])[O][C@H]([C@H](O)CO)[C@H](O)[C@H](C(=O)O)[O]2)[O][C@H]([C@H](O)CO)[C@@H]1O (stereo partly drawn) [stibogluconate] + COc1ccc2c(c1)CCC1C2CCC2(C)C(NCCCCCCN3C(=O)C=CC3=O)CCC12 [U73122] (first compound 10 µM, partner dose 2 µM)	114%
